Assay results: article PMC4336329 (PLoS ONE, 2015)
Among all 310,000 compounds or so, about 2,200 (0.71%) showed an effect of 50% or more. The effect is printed as a negative number. Some of the results follow.

These compounds were tested against human ether-à-go-go-related gene (hERG) potassium channel (human, UniProt Q12809) (assay: primary screen, population patch clamp on CHO cells stably expressing hERG).
human ether-à-go-go-related gene (hERG) potassium channel, sequence (Q12809 whole entry, looked up): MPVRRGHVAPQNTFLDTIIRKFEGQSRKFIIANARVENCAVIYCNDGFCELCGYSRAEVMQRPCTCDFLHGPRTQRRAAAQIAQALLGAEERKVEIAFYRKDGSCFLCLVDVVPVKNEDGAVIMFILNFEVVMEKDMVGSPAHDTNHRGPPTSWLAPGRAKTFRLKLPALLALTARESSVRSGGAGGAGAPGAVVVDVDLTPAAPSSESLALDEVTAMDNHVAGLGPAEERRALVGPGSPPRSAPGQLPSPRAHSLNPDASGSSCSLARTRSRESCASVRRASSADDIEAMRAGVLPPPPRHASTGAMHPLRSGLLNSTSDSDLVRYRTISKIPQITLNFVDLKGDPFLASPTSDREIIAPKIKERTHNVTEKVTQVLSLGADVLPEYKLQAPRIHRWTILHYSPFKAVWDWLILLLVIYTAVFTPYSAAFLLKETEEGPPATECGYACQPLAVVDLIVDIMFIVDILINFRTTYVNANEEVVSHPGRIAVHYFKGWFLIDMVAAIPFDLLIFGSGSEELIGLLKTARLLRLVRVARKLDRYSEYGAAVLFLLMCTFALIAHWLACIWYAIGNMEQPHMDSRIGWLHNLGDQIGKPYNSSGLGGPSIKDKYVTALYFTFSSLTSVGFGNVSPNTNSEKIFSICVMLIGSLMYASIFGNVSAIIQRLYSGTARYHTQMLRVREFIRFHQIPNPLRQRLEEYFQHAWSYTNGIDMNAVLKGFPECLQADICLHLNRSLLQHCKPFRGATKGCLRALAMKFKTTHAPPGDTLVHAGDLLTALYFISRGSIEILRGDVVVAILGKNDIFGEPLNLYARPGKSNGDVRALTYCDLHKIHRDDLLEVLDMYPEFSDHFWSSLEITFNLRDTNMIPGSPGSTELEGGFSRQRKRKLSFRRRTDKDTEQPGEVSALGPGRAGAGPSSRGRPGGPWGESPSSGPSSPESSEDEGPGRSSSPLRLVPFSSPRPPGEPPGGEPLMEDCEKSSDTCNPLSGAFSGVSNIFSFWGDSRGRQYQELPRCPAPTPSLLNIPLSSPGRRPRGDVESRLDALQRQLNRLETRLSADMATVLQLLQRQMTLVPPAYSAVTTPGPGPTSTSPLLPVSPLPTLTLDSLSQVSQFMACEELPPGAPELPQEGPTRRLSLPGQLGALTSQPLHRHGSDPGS
With `CCN(CC)CCn1nc(C)nc1-c1ccccc1O` the “hERG current change (%, negative = inhibition) at 1uM” value was -0.78%. `NNC(=O)c1ccc(CN2CCCCC2)o1` was tested, and the “hERG current change (%, negative = inhibition) at 1uM” value was 5.28%. For `CCOc1ccc(C2NC(=O)CCC2[N+](=O)[O-])cc1` (centres unmarked), the “hERG current change (%, negative = inhibition) at 1uM” value was 26%. With `COc1ccccc1-c1coc2cc(OC(=O)/C=C/c3ccccc3)ccc2c1=O` the “hERG current change (%, negative = inhibition) at 1uM” value was 13.1%. `N#CCCn1cc(/C=N/NC(N)=S)c(-c2ccccc2)n1` was tested, and the “hERG current change (%, negative = inhibition) at 1uM” value was 15.2%. For `CCN(CC)CCCC(C)NC(=O)c1ccc(C(F)(F)F)cc1.Cl` (centres unmarked), the “hERG current change (%, negative = inhibition) at 1uM” value was -0.836%. `Cc1ccc2c(CC(=O)NC3CCS(=O)(=O)C3)coc2c1C` (centres unmarked) was tested, and the “hERG current change (%, negative = inhibition) at 1uM” value was 11.5%. `CCOc1cccc(NC(=O)C2CCCN(S(=O)(=O)c3ccc(-n4cnnn4)cc3)C2)c1` (centres unmarked) was tested, and the “hERG current change (%, negative = inhibition) at 1uM” value was 8.53%. In the case of `O=C(Nc1ccccc1)Nc1ccccc1C(=O)NCc1ccco1`, the “hERG current change (%, negative = inhibition) at 1uM” value is reported as -5.58%. With `Cc1c(C(=O)NCCCN2CCOCC2)oc2c1C1(CCC2)SCCS1` the “hERG current change (%, negative = inhibition) at 1uM” value was 11.3%. With `CCc1nc(Nc2ccccc2OC)c2oc3ccccc3c2n1.Cl` the “hERG current change (%, negative = inhibition) at 1uM” value was 8.61%. For `CCn1cc(C2=NC(C)(C)CO2)c2ccccc21`, the “hERG current change (%, negative = inhibition) at 1uM” value was -1.15%. With `CCOC(=O)C1=Nc2ccccc2C1=[N+]=[N-]` the “hERG current change (%, negative = inhibition) at 1uM” value was 2.9%. With `Cc1ccccc1CSCCNC(=O)c1ccccc1` the “hERG current change (%, negative = inhibition) at 1uM” value was 9.84%. `O=C(C(Cc1ccccc1)NS(=O)(=O)c1cccc2nsnc12)N1CCC2(CC1)OCCO2` (centres unmarked) was tested, and the “hERG current change (%, negative = inhibition) at 1uM” value was 7.3%. In the case of `CCCCS(=O)Cc1ccccc1` (centres unmarked), the “hERG current change (%, negative = inhibition) at 1uM” value is reported as 3.88%. `CC(C)(C)NC(=O)CN1CCC(O)(c2ccc3c(c2)OCO3)CC1` was tested, and the “hERG current change (%, negative = inhibition) at 1uM” value was 7.67%. With `CCOc1ccc(C(=O)c2ccccc2C(=O)O)cc1OCC` the “hERG current change (%, negative = inhibition) at 1uM” value was 4.57%. With `Cc1nc2c(nnn2Cc2ccccc2)c(=O)n1-c1ccccc1` the “hERG current change (%, negative = inhibition) at 1uM” value was 4.22%. In the case of `CCCC(C)NC(=O)CSc1nnc2ccccn12` (centres unmarked), the “hERG current change (%, negative = inhibition) at 1uM” value is reported as 6.4%. In the case of `COc1cccc(OCc2nnc(SCc3cc(=O)[nH]c4ccccc34)o2)c1`, the “hERG current change (%, negative = inhibition) at 1uM” value is reported as -9.9%. In the case of `O=C(c1ccc([N+](=O)[O-])cc1)N1CCSC1c1ccccc1Cl` (centres unmarked), the “hERG current change (%, negative = inhibition) at 1uM” value is reported as 2.89%. In the case of `O=C(O)C(=O)O.O=C(c1ccccc1)c1ccc(OCCOCCN2CCN(Cc3ccccc3)CC2)cc1`, the “hERG current change (%, negative = inhibition) at 1uM” value is reported as -82.8%. With `CCOc1ccc(Nc2nc3ccccc3n3cnnc23)cc1` the “hERG current change (%, negative = inhibition) at 1uM” value was 9.19%. In the case of `CCN(CC)CCN(C(=O)c1ccc2ncsc2c1)c1nc2cc3c(cc2s1)OCO3.Cl`, the “hERG current change (%, negative = inhibition) at 1uM” value is reported as -20.5%. `CC1CCCC(C(=O)O)N1C(=O)CCSC(=O)c1ccccc1` (centres unmarked) was tested, and the “hERG current change (%, negative = inhibition) at 1uM” value was 6.24%.
